Results from PMC5427921, “PRL3 phosphatase active site is required for binding the putative magnesium transporter CNNM3” (Scientific Reports, 2017).

Biological target: T1, CNNM3 CBS-pair domain as a GST fusion (human, UniProt Q8NE01 309-452)
T1 construct: CBS-pair domain of human CNNM3; also called CBS-pair (Bateman) domain of CNNM3
Test: ITC; syringe 160 μM PRL2 or PRL3, cell 16 μM CNNM3 CBS-pair domain as a GST fusion; 22 °C; 30 injections of 10 μl; fitted to a single set of identical sites
Settings: both partners purified

Sequence of CNNM3 CBS-pair domain as a GST fusion (Q8NE01 309-452): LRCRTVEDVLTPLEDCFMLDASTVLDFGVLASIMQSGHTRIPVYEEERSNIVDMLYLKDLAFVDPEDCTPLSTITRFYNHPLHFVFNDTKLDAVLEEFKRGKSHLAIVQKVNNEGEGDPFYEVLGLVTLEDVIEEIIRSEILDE

Binder | fold loss of affinity against wild-type PRL3 [fold] | fold decrease of affinity against wild-type PRL3 [fold]
PRL3 C49A (enzyme, N-terminal extension Gly-Ser-His left after thrombin cleavage of the His tag; PRL3, human, […], point mutant; not shown: His6, N-terminal, cleaved) not shown | < 10 | –
PRL3 C49S (enzyme, N-terminal extension Gly-Ser-His left after thrombin cleavage of the His tag; PRL3, human, […], point mutant; not shown: His6, N-terminal, cleaved) not shown | < 10 | –

The remaining lines, values ahead:

fold loss of affinity against wild-type PRL3 [fold] | fold decrease of affinity against wild-type PRL3 [fold] | Binder
– | > 100 | PRL3 C104S (enzyme, N-terminal extension Gly-Ser-His left after thrombin cleavage of the His tag; PRL3, human, […], point mutant; also called C104S mutant; not shown: His6, N-terminal, cleaved) not shown
– | 16 | PRL3 C104A (enzyme, N-terminal extension Gly-Ser-His left after thrombin cleavage of the His tag; PRL3, human, […], catalytic cysteine mutated to alanine; Used in ITC and crystallised with the CNNM3 CBS-pair domain; also called C104A mutant; not shown: His6, N-terminal, cleaved) not shown
